Our source for the inhibition values is PubChem BioAssay AID485344 (National Center for Advancing Translational Sciences (NCATS), 2010).

In all, about 340,000 compounds went through this assay and about 6,900 (2%) were called active. Cut-off read from the data, not from the text of the source: active = inhibition above about 30%; inactive = below that, where a call was filed. The entries are a selection whose mix differs from that of the whole data set. Where no call is shown, the source filed none.

UniProt P14416, sequence (P14416 whole entry, looked up): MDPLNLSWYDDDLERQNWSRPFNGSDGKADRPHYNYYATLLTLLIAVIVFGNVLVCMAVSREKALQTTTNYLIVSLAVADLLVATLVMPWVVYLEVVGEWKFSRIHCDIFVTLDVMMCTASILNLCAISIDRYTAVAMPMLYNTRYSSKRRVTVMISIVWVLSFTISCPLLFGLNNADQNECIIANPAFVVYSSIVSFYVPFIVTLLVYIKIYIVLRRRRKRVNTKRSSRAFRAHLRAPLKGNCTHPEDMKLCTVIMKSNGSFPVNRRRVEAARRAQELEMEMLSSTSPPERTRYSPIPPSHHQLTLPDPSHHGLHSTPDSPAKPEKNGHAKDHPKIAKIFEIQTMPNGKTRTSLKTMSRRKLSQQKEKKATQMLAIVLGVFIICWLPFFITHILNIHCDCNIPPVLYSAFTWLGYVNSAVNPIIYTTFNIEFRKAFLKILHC

The assay deals with D(2) dopamine receptor (Homo sapiens) (UniProt P14416). In words: HTS Assay for Allosteric Antagonists of the Human D2 Dopamine Receptor: Primary Screen for Antagonists. Note: 0% is about no effect. Conditions: HEK293 TREx D2 cells, calcium flux, dopamine EC80; at 10 µM; stronger effect = higher value. A digest of the protocol:
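Dopamine at EC80 is the agonist stimulus; test compounds precede it by 180 s. Calcium flux read kinetically in a force-coupled, inducible HEK293 T-REx D2 cell line.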
As to `CCn1c(C)c(C)c2cc(C(=O)NCc3ccc(OC(C)C)cc3)ccc21`, the inhibition worked out at 5.43%.
With `COc1ccc2c(c1)cc1c(=O)n(CC(=O)NCCCOC(C)C)nc(C)n12`, the inhibition was -11.2%.
For `COc1cc2c(C(=O)N3CCN(c4cccc(C(F)(F)F)c4)CC3)cn(CC(C)C)c(=O)c2cc1OC`, the inhibition was -7.78%.
The figure for `COc1ccc(NC(=O)Cn2c(=O)n(Cc3ccc4c(c3)OCO4)c(=O)c3ccc(C(=O)NC4CCCCC4)cc32)cc1` is -2.54%.
With `CCOCCCNc1nc2ccccc2n2c(CC)nnc12`, the inhibition is -4.3%.
For `O=C(NC1(C(F)(F)F)C(=O)Nc2c1c(=O)[nH]c(=O)n2-c1ccccc1)c1ccccc1Cl` (configuration not stated) the value was -7.94%; for `COc1cc(OC)cc(-c2cc3nc(C)c(CCC(=O)Nc4ccc(C(C)=O)cc4)c(C)n3n2)c1`, -1.2%; for `C=Cc1ccc(Cn2c(=O)cc(C)c3c(C)nn(-c4ccccc4)c32)cc1`, 3.31%.
`CC(C)c1ccc(CNc2nc(-c3ccco3)nn2C(=O)c2ccc([N+](=O)[O-])cc2)cc1`: the inhibition was -17.6%.
`CSCCC(NS(=O)(=O)c1ccc2c(c1)oc(=O)n2C)C(=O)Nc1ccc(Cl)cc1` (configuration not stated): the inhibition was -17.3%.
For `COc1ccc(OCC(=O)N(Cc2cccs2)c2ccc(OC)cc2)cc1`, the inhibition is -0.91%.
The figure for `COCc1cc(C)nc2sc3c(c12)NC(c1ccc(O)c(OC)c1)N(c1ccccc1)C3=O` (configuration not stated) is 15.2%; for `COc1ccccc1CNC(=O)C1CCCN(c2nnc(C)c3c(C)n(-c4ccccc4)nc23)C1` (configuration not stated) it is -5.37%; for `CCOC(=O)c1c(C)[nH]c(C)c1S(=O)(=O)NCC1CCN(Cc2cccc(Cl)c2)CC1` it is active: 78%.
The figure for `CCc1ccccc1NC(=O)c1sc2nc(C)cc(COC)c2c1N` is -0.769%; for `CC(C)(C)C1CCc2nc(NC(=O)c3ccc([N+](=O)[O-])cc3)sc2C1` (configuration not stated) it is 1.74%; for `Cc1ccc(C(=O)O)cc1NC1(c2ccccc2)C(=O)c2ccccc2C1=O` it is 10.3%.
For `COc1ccc2oc(-c3ccc(C)c(NC(=O)c4ccc(-c5ccccc5[N+](=O)[O-])o4)c3)nc2c1`, the inhibition stood at 1.71%.
For `Cc1cccc(-c2nc3c(cnn3-c3ccccc3)c(=O)n2-c2ccc(Br)cc2)c1` the value was -3.41%; for `Cc1c(Cl)cccc1NC(=O)CSc1nc2ncccc2o1`, 9.74%; for `OCC1(CCc2ccccc2)CCCN(CCCc2ccccc2)C1` (configuration not stated), active: 76.4%.
Take `CCn1ccc2c(OCC(=O)NCc3ccccc3)cccc2c1=O`: the inhibition turned out to be 4.03%.
Regarding `CCCN1CCN(c2cc3c(cc2F)c(=O)c(S(=O)(=O)c2ccc(CC)cc2)cn3CC)CC1`, the inhibition is -16%.
As to `Cc1ccc(S(=O)(=O)c2[nH]c(-c3ccccc3)nc2SCCC(=O)O)cc1`, the inhibition was 9.01%.
For `Cc1cccc(N(Cc2cc3ccccc3[nH]c2=O)C(=O)c2cccc(Cl)c2)c1` the value was -4.25%; for `Cc1ccc(N2CC(NC(=O)CCc3ccccc3)CC2=O)cc1C` (configuration not stated), 19.8%.
For `CCCn1c(=N)n(CC(O)COc2ccccc2OC)c2ccccc21` (configuration not stated) the value was -1.37%; for `O=C(c1ccco1)N1CCN(Cc2ccc(F)cc2)CC1`, active: 57.6%.
For `COc1ccccc1Nc1nc(-c2sc(N)nc2C)cs1` the value was active: 37.7%.
With `Cc1nn(CC(=O)N2CCN(c3cccc(C(F)(F)F)c3)CC2)c(=O)c2cc3sccc3n12`, the inhibition worked out at 15.6%.
As for `CCOc1ccc(NC(=O)c2c(Nc3ccccc3C)sc(C(=O)c3ccc(Cl)cc3)c2N)cc1`, the inhibition is 1.95%.
For `CCc1ccc(Sc2cc(C(=O)O)c3ccccc3n2)cc1` the value was 6.09%; for `COc1ccc(-n2nc(C(=O)N(C)c3cc(Cl)ccc3OC)c3c4ccccc4n(C)c3c2=O)cc1`, -9.72%.
For `COc1ccc(Cc2noc(-c3ccccc3)n2)cc1OC` the value was active: 33.2%.
For `CCOc1ccccc1NC(=O)C1=C(C)Nc2ncnn2C1c1ccc(NC(C)=O)cc1` (configuration not stated) the value was -23.7%; for `Cc1ccc(Cc2nc3ccccc3nc2SCC(=O)N2CCN(c3ccccc3)CC2)cc1`, 4.69%; for `Cc1nn(CCCC(=O)NCc2ccc(OC(C)C)cc2)c(=O)c2c1sc1ccccc12`, -0.652%.
For `COc1ccc(S(=O)(=O)c2nnn(-c3ccccc3F)c2C)cc1`, the inhibition was -10.9%.
For `N#CC1=C2SCN(C3CCCCC3)CN2C(=O)CC1c1c(F)cccc1Cl` (configuration not stated) the value was 9.77%; for `O=[N+]([O-])c1cc(-c2nc(-c3ccco3)no2)ccc1NCc1ccccc1`, 23.4%.
As for `O=C(CCN1CCN(C/C=C/c2ccccc2)CC1)Nc1ccccc1Cl`, the inhibition was active: 31.9%.
For the molecule `CCOC(=O)N1CCC(NC(=O)c2ccc(CS(=O)c3cccc(Cl)c3)o2)CC1` (configuration not stated), the inhibition was active: 54.1%.
For the molecule `CCCCn1c(CCC(=O)O)ccc1-c1cccs1`, the inhibition is active: 40.4%.
For `O=C(NCCCc1nc2ccccc2n1Cc1ccccc1Cl)c1ccco1` the value was -23.2%.
Take `CCN(c1ccc(Cl)cc1)S(=O)(=O)c1nnc(NC(=O)c2ccccc2C)s1`: the inhibition was determined as 0.938%.
Turning to `CC(CNC(=O)C1CCN(C(=O)N2CCOc3ccc(Cl)cc32)CC1)c1ccccc1` (configuration not stated), the inhibition is -10.9%.
The figure for `COc1ccc(-c2onc(C)c2C)cc1S(=O)(=O)NCc1ccc(C)o1` is 12.7%; for `COc1ccc(NC(=O)CSc2nc3ccccc3n2CC(=O)N2CCCCC2C)cc1` (configuration not stated) it is -6.26%.
As for `COc1ccc(CCCc2nnc(SCC(=O)Nc3cccc(C)c3)o2)cc1`, the inhibition was -3.98%.
The figure for `Cc1nn(CCC(=O)NCc2ccc(Cl)cc2)c(=O)c2nn(-c3ccccc3)c(C)c12` is 6.42%; for `Cc1c(Cl)cccc1NC(=O)CC(c1ccc(F)cc1)N1Cc2ccccc2C1=O` (configuration not stated) it is 2.6%.
The figure for `Cc1ccc2[nH]cc(C(c3ccccc3)c3ccc(C)s3)c2c1` (configuration not stated) is -5.34%; for `CCC(C)NC(=O)CCc1c(C)nc2c(c(C)nn2-c2ccc(C)cc2)c1C` (configuration not stated) it is -3.5%; for `CCOc1cccc(CC(=O)NCc2ccc3c(c2)CCN3C(C)=O)c1OCC` it is -13.3%.
The figure for `CCOC(=O)c1ccc(-c2ccc(/C=C(\C#N)c3nc4ccc(C)cc4[nH]3)o2)cc1` is -27.7%; for `COCC(C)NC(=O)c1cc2c(=O)n3cccc(C)c3nc2s1` (configuration not stated) it is 4.11%; for `Cc1ccc2c(c1)C(Cc1ccccc1F)C(=O)N2` (configuration not stated) it is 9.34%.
As to `CCn1cc(CCC(=O)NCc2ccc(C)cc2)c2ccccc21`, the inhibition was -6.17%.
Regarding `COc1ccc(CCNC(=O)C(CC(C)C)N2Cc3ccccc3C2=O)c(OC)c1OC` (configuration not stated), the inhibition worked out at 0.999%.
For `COC(=O)CN(c1ccc(F)cc1)S(=O)(=O)c1ccccc1` the value was active: 47.5%; for `COc1cc2c(=O)n(Cc3ccccc3Cl)c(=O)n(CC(=O)Nc3ccc(C)c(C)c3)c2cc1OC`, -1.81%.
On to `Cc1cccc(C(=O)Nc2cc(-c3nc4cccnc4s3)ccc2C)c1`, for which the inhibition is -3.41%.
